In all, about 310,000 compounds went through this assay and about 14,000 (4.5%) showed an effect of 50% or more. The effect is printed as a negative number. The list shows a part of the results.
Target: human ether-à-go-go-related gene (hERG) potassium channel (human, UniProt Q12809)
Assay: primary screen, population patch clamp on CHO cells stably expressing hERG
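Note: peak tail current of the secondary pulse compared with the same well before compound.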

human ether-à-go-go-related gene (hERG) potassium channel, sequence (Q12809 whole entry, looked up): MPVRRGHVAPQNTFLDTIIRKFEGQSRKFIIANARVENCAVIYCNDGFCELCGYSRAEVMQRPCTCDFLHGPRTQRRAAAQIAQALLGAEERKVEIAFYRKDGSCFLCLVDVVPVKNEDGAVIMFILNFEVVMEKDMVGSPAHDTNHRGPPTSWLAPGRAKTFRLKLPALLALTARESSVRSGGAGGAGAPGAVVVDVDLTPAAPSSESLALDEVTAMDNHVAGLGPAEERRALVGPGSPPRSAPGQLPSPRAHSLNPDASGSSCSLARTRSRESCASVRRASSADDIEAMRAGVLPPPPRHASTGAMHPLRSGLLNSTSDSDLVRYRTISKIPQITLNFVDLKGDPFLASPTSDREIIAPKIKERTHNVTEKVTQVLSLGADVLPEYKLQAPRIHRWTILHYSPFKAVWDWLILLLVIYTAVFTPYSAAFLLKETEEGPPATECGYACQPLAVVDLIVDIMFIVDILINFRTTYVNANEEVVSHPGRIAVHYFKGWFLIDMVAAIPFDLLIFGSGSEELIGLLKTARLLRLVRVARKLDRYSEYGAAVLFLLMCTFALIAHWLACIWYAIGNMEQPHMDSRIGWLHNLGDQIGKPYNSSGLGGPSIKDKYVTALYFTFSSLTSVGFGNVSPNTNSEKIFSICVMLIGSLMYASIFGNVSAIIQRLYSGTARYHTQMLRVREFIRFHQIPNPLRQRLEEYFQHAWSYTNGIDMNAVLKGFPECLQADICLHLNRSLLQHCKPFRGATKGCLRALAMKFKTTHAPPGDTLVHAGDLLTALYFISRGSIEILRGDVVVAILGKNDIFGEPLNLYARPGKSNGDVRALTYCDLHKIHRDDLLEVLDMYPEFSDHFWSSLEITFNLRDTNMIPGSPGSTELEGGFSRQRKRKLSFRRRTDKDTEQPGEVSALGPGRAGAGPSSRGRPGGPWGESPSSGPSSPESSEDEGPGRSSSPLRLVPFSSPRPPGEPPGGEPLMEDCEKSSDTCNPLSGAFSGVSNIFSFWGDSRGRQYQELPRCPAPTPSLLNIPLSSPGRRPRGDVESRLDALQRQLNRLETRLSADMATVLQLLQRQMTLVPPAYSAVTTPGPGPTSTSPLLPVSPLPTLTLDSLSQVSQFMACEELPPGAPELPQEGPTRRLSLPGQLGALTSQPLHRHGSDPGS

| Compound | hERG current change (%, negative = inhibition) at 10uM |
| --- | --- |
| Cc1ccc(CN2CCC(Oc3cccc(C(=O)NCc4cccnc4)c3)CC2)o1 | -24.7% |
| CCOC(=O)Cc1csc(NC(=O)COc2ccc(C)c(C)c2)n1 | 3.57% |
| Cc1ccc(-c2nc(=S)c3c(n2CCN2CCOCC2)CC(C)(C)OC3)cc1 | -0.783% |
| Cc1ccc(S(=O)(=O)N2CC(C(=O)O)=CC[C@H]2c2ccc(Cl)cc2)cc1 | 18.2% |
| Cc1nn(C(C)(C)C)c(N)c1-c1ccccc1 | 10.2% |
| Cc1[nH]c2ccccc2c1/C=N/NC(=O)c1cccc(S(=O)(=O)Nc2cccc(C(F)(F)F)c2)c1 | 18.6% |
| Cc1cc(C)cc(C(=O)N(CCc2ccccc2)C2=CC3CCC(C2)N3C)c1.Cl (stereo not shown) | -60.7% |
| COc1ccc(OC(C)C(=O)NC(C)c2ccccc2)cc1 (stereo not shown) | 27.7% |
| Cl.O=C(O)c1ccoc1CN1CCCCC1 | -3.81% |
| CC1=NN(c2ccc(Cl)c(C(=O)O)c2)C(=O)/C1=C/c1ccc(-c2ccccc2[N+](=O)[O-])o1 | 5.1% |
| Cc1ccccc1C(=O)NC1CCN(CC(=O)Nc2ccc(Br)cc2)CC1 | -39.3% |
| CCOC(=O)/C(N=Nc1sc(C(=O)OC)c(C)c1C(=O)OCC)=C(\O)CCl | 2.33% |
| COc1cccc(CN(C)C(=O)c2cc(S(=O)(=O)NCc3ccccc3)ccc2C)c1OC | -16.7% |
| NS(=O)(=O)c1ccc(CCNC(=O)c2cccc(OC(F)F)c2)cc1 | -24.5% |
| Cc1cccc(C)c1NC(=O)C1(N(Cc2ccco2)C(=O)CC2NC(=O)NC2=O)CCCC1 (stereo not shown) | 8.55% |
| CCOC(=O)c1c(C)[nH]c(C(C)=O)c1C | 9.55% |
| CN(C(=O)CSc1nnnn1C)C1(C#N)CCCCC1 | 10.7% |
| O=C(COC(=O)c1nc(Cl)ccc1Cl)NNC(=O)c1cccs1 | 9.68% |
| COc1ccc(OC)c(/C=N/NC(=O)C(=O)N2CCCC2)c1 | -6.06% |
| CCc1ccccc1NC(=O)c1noc(C(C)C)c1[N+](=O)[O-] | -0.896% |
| OCC1(CCCc2ccccc2)CCN(Cc2cc(F)ccc2F)CC1 | -69.5% |
| CCCC(=O)OC1CCS(=O)(=O)c2sccc21 (stereo not shown) | 10.5% |

| Compound | hERG current change (%, negative = inhibition) at 10uM |
| --- | --- |
| CCn1c(SCC(=O)Nc2cc(C)on2)nnc1-c1ccc(S(=O)(=O)N2CCCC2)cc1 | -1.7% |
| COc1ccc(-c2[nH]ncc2CN2CCC(C(=O)c3ccc(F)cc3)CC2)cc1 | -76.2% |
| O=C(CCC(=O)Nc1cccc([N+](=O)[O-])c1)N/N=C/c1cccs1 | -4.69% |
| C/C(CC(=O)Nc1cc(C)ccn1)=N\NC(=O)c1ccc(C(C)(C)C)cc1 | 12.9% |
| CCOC(=O)c1[nH]c(C)c(C(=O)/C=C/c2ccc(C(=O)O)cc2)c1C | 19.3% |
| Nc1cc(=O)[nH]c(SCc2cccc(Cl)c2)n1 | 5.62% |
| C=CCNc1nc2c(c(=O)n(C)c(=O)n2C)n1CC(=C)C | -5.68% |
| NC(=O)NC(=O)C(c1ccccc1)N1CCN(S(=O)(=O)Cc2ccccc2)CC1 (stereo not shown) | -18.9% |
| CCOC(=O)C1=C(C)Nc2ccccc2N=C1NC(=O)c1cccc(S(=O)(=O)NCc2ccccc2)c1 | -19.4% |
| O=C(Nc1nc2c(s1)CCCC2)c1ccc(S(=O)(=O)N2CCCc3ccccc32)cc1 | 20.9% |
| COc1ccc(S(=O)(=O)N(C)CC(=O)NCCc2ccccc2)cc1OC | -5.73% |
| CCN1CCN(C(=O)C2=C(C(=O)O)CCCC2)CC1 | 6.09% |
| CC(=O)Nc1ccc2c(c1)c1ccccc1n2C(C)=O | 0.357% |
| CC(C(N)=O)N1C(=O)C2C3C=CC(C3)C2C1=O (stereo not shown) | 13.3% |
| Cc1ccnc(N2CCC(C(=O)NNC(=O)COc3cccc4ccccc34)CC2)n1 | 11.2% |
| Cc1csc(Sc2nc3c(c(=O)[nH]c(=O)n3C)n2CCCc2ccccc2)n1 | 12.2% |
| Cc1ccc(S(=O)(=O)N2[C@@H](c3ccccc3)C(C(=O)O)=CC[C@H]2c2cccc(Cl)c2)cc1 | 10.6% |
| O=C1C[C@@H](c2ccc(O[C@@H]3O[C@H](CO)[C@@H](O)[C@H](O)[C@H]3O)cc2)Oc2cc(O)ccc21 | 7.57% |
| Cc1ccc(N2C(=O)CC2(C#N)c2ccc(OCc3ccccc3)cc2)cc1 (stereo not shown) | -29.4% |
| O=C(Cn1nc(-c2cccc([N+](=O)[O-])c2)c2ccccc2c1=O)Nc1cccnc1 | -13.8% |
| CCc1c(C)nc(Nc2nc(C)c3cc(OC)ccc3n2)[nH]c1=O | 3.37% |
| CCOc1ccc(-n2c(Cc3cc(=O)[nH]c(=O)[nH]3)nnc2SCC(=O)NC2CCCC2)cc1 | 11.9% |

| Compound | hERG current change (%, negative = inhibition) at 10uM |
| --- | --- |
| Cc1nnsc1C(=O)N1CCCC(Nc2ccc(F)c(F)c2)C1 (stereo not shown) | 0.644% |
| O=C(Cn1cc(C(=O)c2ccco2)c2ccccc21)NC1CCCCC1 | -1.45% |
| COc1ccccc1CNC(=O)c1ccc(S(=O)(=O)N(C)C)cc1 | 0.905% |
| Cc1ccc(C)c(NC(=S)Nc2ncccc2C)c1 | -8.78% |
| CCCCn1c(=O)[nH]c(=O)c2c1nc(-c1ccc(-c3ccccc3)cc1)n2C | 20.2% |
| CCc1nc(CN2CCN(Cc3ccc(F)c(F)c3)C(CCO)C2)c(C)[nH]1 (stereo not shown) | 14.2% |
| COc1ccc(C(=O)Nc2sc3c(c2C(=O)O)CC(C)(C)OC3)cc1 | -2.18% |
| O=C1C=C(c2ccccc2)CCC1 | 19.9% |
| Cc1nc2c(C#N)c(C)[nH]n2c(=O)c1Cc1ccccc1 | 14.2% |
| CCSc1nc2cc(C(=O)OC)ccc2c(=O)n1CC | 0.198% |
| CCOC(=O)c1c(C)[nH]c(C(=O)OCC(=O)N2CCc3ccccc32)c1C | 18% |
| O=C(N/N=C/c1ccncc1)c1cc(C2CC2)nc2ccccc12 | -7.52% |
| C#CCOCCOCCOCCNc1nc(N2CCN(C(=O)CCCCCCCCCCNC(=O)Cn3cc(C[C@@H](C)O)nn3)CC2)nc(N2CCN(C(=O)CCCCCCCCCCNC(=O)[C@H](CO)n3cc(CCCSC)nn3)CC2)n1 | 1.59% |
| NC(=O)c1cccc([N+](=O)[O-])c1 | 5.64% |
| CCc1ccccc1NS(=O)(=O)c1ccc2c(c1)C(C)(C)C(=O)N2C | -7.66% |
| O=C(Nc1ccc(OCC(=O)N2CCN(S(=O)(=O)c3ccccc3)CC2)cc1)c1ccco1 | 4.9% |
| CCCC12CN(C(=O)c3ccc([N+](=O)[O-])cc3)CC(C)(CN(C(=O)c3ccc([N+](=O)[O-])cc3)C1)C2=O | -14.5% |
| Cc1ccc(CNCC(O)(c2ccc(F)cc2)c2ccc(F)cc2)cc1 | -56.4% |
| Cc1ccc(NS(=O)(=O)c2ccc3c(c2)NC(=O)CO3)c(C)c1 | 19% |
| N#CCCn1ncn(-c2ccccc2)c1=S | 1.22% |
| COc1cccc(/C=C2\SC(=S)N(CCC(=O)NCCc3ccc(O)cc3)C2=O)c1 | 3.18% |
| Cc1ccc(-c2csc(NC(=O)c3ccc4c(=O)n5c(nc4c3)CCCCC5)n2)cc1 | -6.65% |

| Compound | hERG current change (%, negative = inhibition) at 10uM |
| --- | --- |
| COc1cc(NC(=O)c2ccccc2-c2ccccc2)cc(OC)c1OC | 4.85% |
| CC(C)(C)c1csc(NC(=O)C2=COCCO2)n1 | -2.05% |
| CC1=NN(C(C#N)c2ccc(F)cc2)C(c2ccccc2)C1 (stereo not shown) | 4.44% |
| CC1(C)Cc2c(sc3[nH]c(=S)[nH]c(=O)c23)CO1 | -10.7% |
| Cl.OC(c1ccccc1)(c1ccccc1)C1CCCN1 (stereo not shown) | -2.08% |
| S=c1[nH]cc(-c2ccccc2)n1-c1cccc(Cl)c1 | 2.26% |
| Cc1nnc(N/N=C/c2ccc(O)c([N+](=O)[O-])c2)[nH]c1=O | 9.29% |
| COc1ccc(NC(=O)CSc2nnc(Cc3ccccc3)c(=O)n2N)cc1 | 3.47% |
| Cc1ccc(NS(=O)(=O)c2cccc3nsnc23)cc1[N+](=O)[O-] | 4.77% |
| CCCC1=C(C(=O)OCC)C(c2ccc(OC)c(C)c2OC)C(C#N)=C(N)O1 (stereo not shown) | -3.01% |
| Cc1noc(C)c1COC(=O)Cc1ccc(Br)cc1 | 11.6% |
| COC(=O)c1nc(-c2ccccc2)n[nH]1 | -5.5% |
| CCOc1cccc(CNC2CN3CCC2CC3)c1.Cl (stereo not shown) | 3.13% |
| CCN(CC)C(=O)CC(c1ccc(N(C)C)cc1)c1c(OC)cc(OC)c2c(-c3ccccc3)cc(=O)oc12 (stereo not shown) | 5.07% |
| CCOc1ccc(-n2ccnc2SCC(=O)Nc2nnc(C)s2)cc1 | -5.56% |
| Cc1ccc(C)c(N2N=C(C(=O)Nc3cccc(S(=O)(=O)N4CCCCC4)c3)CCC2=O)c1 | -17.6% |
| COc1ccc(Cl)cc1Nc1nc(C)cc(=O)[nH]1 | 1.61% |
| O=C(NCN1C(=O)C2C3C=CC(C3)C2C1=O)Nc1ccccn1 (stereo not shown) | 9.67% |
| Cc1cc(C)c2oc(C(=O)Nc3ccc(S(=O)(=O)N4CCCC(C)C4)cc3)cc(=O)c2c1 (stereo not shown) | 6.59% |
